Source: the supplement of paper PMC4466236
The full ranking holds about 33,000 sequences; the median of “E-score (dimensionless, -0.5 to 0.5)” is about -0.058, and the highest 2% start at about 0.35. The list shows a part of the results.

System: MvaT
Assay: PBM 8-mer E-score (mean of HK and ME arrays) (E-score (dimensionless, -0.5 to 0.5)); higher = stronger relative binding preference; most listed sequences are background and not binding sites
Procedure: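 Protein binding microarray: GST-tagged full-length MvaT (P. aeruginosa PAO1) bound to two universal double-stranded 60-mer arrays (ME and HK), each with a constant 25-mer primer and a variable 35-mer region covering all 8-mers. The 8-mer E-score (rank-based, range -0.5 to 0.5, >0.45 = specific binding) is the mean of the two arrays.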

Row | Sequence | PBM 8-mer E-score
1 | AAATAAAG | 0.405
2 | TCACTAAA | 0.09
3 | AGCACAGG | -0.197
4 | CGACTAAA | 0.0875
5 | ATCACGAA | 0.0464
6 | GAGAGTCC | -0.294
7 | CTTTATGA | 0.126
8 | ACCTCGAT | -0.0851
9 | AAGACAGG | -0.129
10 | CGACGCCA | -0.199
11 | AGTGTCCA | -0.0879
12 | AATTGTAG | 0.182
13 | CCGCGAAG | -0.217
14 | AAAAGCGG | 0.0615
15 | CTCCAAAC | -0.0484
16 | CTAGTTCC | -0.114
17 | GGTGTGCA | -0.032
18 | GTGAACCA | -0.139
19 | TACTCCTA | -0.0716
20 | CACGTTTA | 0.144
21 | CTCACCTA | -0.0511
22 | AGTAGGAA | 0.0174
23 | CGGGGGAA | -0.0708
24 | AGTAGGTC | -0.199
25 | AGGTCCCA | -0.174

Row | Sequence | PBM 8-mer E-score
26 | CCAGGTGC | -0.286
27 | CCGGTCCA | -0.119
28 | AGCTTAGG | -0.164
29 | ACCTAGAC | -0.213
30 | CAGGTCCG | -0.271
31 | GTTCTTAA | 0.133
32 | CTTTCTGC | -0.0902
33 | GCAGTCCC | -0.22
34 | GGGGTGAA | 0.00647
35 | CTTAATCC | 0.0506
36 | CATCGGTA | -0.0732
37 | ATTGGTGG | 0.00541
38 | ACGTACAT | 0.13
39 | CCGTGAAG | -0.181
40 | GTCATAGA | -0.137
41 | ACCTGACT | -0.114
42 | AAACGGAT | 0.0223
43 | GCACTTAA | 0.222
44 | GCCGAATA | 0.0593
45 | CACGCCTC | -0.232
46 | CCGAGGCA | -0.0427
47 | ATTGCTCG | 0.057
48 | CCGTCTAC | -0.182
49 | CTTTCAAA | 0.263
50 | CATCATCC | -0.0345

Row | Sequence | PBM 8-mer E-score
51 | AATGTACA | 0.314
52 | CCTAGTAA | 0.0327
53 | CCATGCGC | -0.238
54 | AATTGGAC | 0.093
55 | ACGCAGTC | -0.327
56 | GGCTACGA | -0.172
57 | AGGACCCA | -0.18
58 | CTCGACCA | -0.111
59 | AACTATAG | 0.236
60 | GGTGCACC | -0.189
61 | CAGAATCA | -0.00147
62 | CGGTCGGC | -0.161
63 | AGAGTTAA | 0.188
64 | GAACCCGC | -0.164
65 | AACGAGGA | -0.202
66 | GGAATTCC | -0.039
67 | TCTAAGCA | 0.132
68 | AATAGTGG | 0.252
69 | AAAAATCT | -0.0904
70 | GCAACCGA | -0.119
71 | GGATGTGA | -0.145
72 | CGAAGTTC | 0.106
73 | AACCCGTG | -0.144
74 | AACTTGCC | 0.213
75 | CACCAATG | -0.132

Row | Sequence | PBM 8-mer E-score
76 | AGAAAAGA | 0.219
77 | GAACTCGA | -0.133
78 | TCTACGCA | -0.13
79 | AGAGTCGG | -0.106
80 | CGTTTAAA | 0.317
81 | GAAGACAC | -0.0042
82 | CCGATGGA | -0.296
83 | GACCTCGC | -0.286
84 | CAGTTTAC | -0.1
85 | AGTTTAGC | 0.132
86 | AATGCACG | -0.0268
87 | AGCCACAA | -0.136
88 | AAGTCACG | -0.0325
89 | ATAATCCC | 0.0407
90 | CAAAATCC | -0.0545
91 | ATAACCAA | 0.242
92 | GCCGTAGA | -0.157
93 | GGTAAGTA | 0.0966
94 | AAAAGCAA | 0.177
95 | ATCCCGAC | -0.101
96 | ATTGGTAG | 0.0602
97 | AGGGGCAG | -0.229
98 | ACAAGACA | -0.0679
99 | ACCGATAC | -0.0985
100 | GAATCGCA | -0.138

Row | Sequence | PBM 8-mer E-score
101 | CGTAGCGC | -0.251
102 | GCTTCTTA | -0.00344
103 | CGTAGTAG | -0.0801
104 | ATTTCGAG | 0.103
105 | ATACGGAG | 0.00916
106 | AATAGCAA | 0.295
107 | ATGCGTTA | 0.0937
108 | ATGCGAAC | 0.0341
109 | GGTCTTTA | 0.0246
110 | AACCTGCT | -0.0689
111 | CCGCGCTC | -0.251
112 | CATTTACG | 0.128
113 | ATCGTTAG | -0.0564
114 | AATCGAGA | 0.0284
115 | ATGCCTAC | -0.0346
116 | GTTTGTCA | 0.195
117 | AGAATTAG | 0.00537
118 | ATAATCTC | 0.337
119 | TGAAGCAA | -0.0937
120 | CCTGACTA | -0.101
121 | ACCTGCGA | 0.0108
122 | GCAGAACC | -0.248
123 | CAAATTCG | 0.16
124 | TCAAAAGA | -0.0953
125 | GCCGGTAA | -0.0408

Row | Sequence | PBM 8-mer E-score
126 | CCGGCCTC | -0.247
127 | CATCTCGA | -0.174
128 | AACTAACT | 0.319
129 | ATAGTTCC | 0.134
130 | ACACGACC | -0.0101
131 | GTAGTGCA | -0.115
132 | AGACTTGG | -0.179
133 | CCATCACG | -0.185
134 | GGCATCAA | -0.276
135 | CAAATAGG | 0.0611
136 | CTGCTCAC | -0.0923
137 | GAACTGTA | 0.204
138 | CTGTCAAC | -0.0827
139 | GACGACCA | -0.176
140 | ACAACATA | 0.316
141 | AATCAGCA | 0.00273
142 | CTGATGGC | -0.204
143 | ATTGTTAG | 0.235
144 | GTATTCTA | 0.112
145 | AATTCGCG | 0.137
146 | AGGATAAA | 0.22
147 | ACCAACGC | -0.0165
148 | AGGAAACA | 0.0687
149 | CCTTCTGC | -0.214
150 | AATTTGTA | 0.309

Row | Sequence | PBM 8-mer E-score
151 | TAGCTCGA | -0.0695
152 | ATTCCGGC | -0.0431
153 | CAAACACC | 0.0703
154 | GATGAGTA | 0.132
155 | CAGCGTCC | -0.2
156 | CAATCTGC | -0.135
157 | GACTCAAA | -0.0301
158 | CTCTAAGA | -0.0191
159 | CTATTATC | 0.263
160 | AACGCTCA | -0.106
161 | CCACTTAG | -0.102
162 | CCTGCCCC | -0.338
163 | CAAACCTC | -0.0187
164 | CGGGATGA | -0.127
165 | CAGTTTAG | 0.0785
166 | CTCAAAAC | 0.0985
167 | CCCTCGTC | -0.263
168 | CGTCCTGA | -0.0672
169 | GATTCACA | 0.108
170 | AAAACCTG | 0.0557
171 | GTCTCAAA | 0.0374
172 | CAAAACCA | 0.0514
